According to paper PMC11239674:
Positions count from the first letter of the chain named.

Tests used:
Assay in all cases: MST
BnGRP7 (Brassica napus) = target: T1, BnGRP7 (Brassica napus) (UniProt A0A078J5Z4); conditions: 25 mM Tris-HCl pH 8.0, 150 mM NaCl (150 mM LiCl for Sc1 LiCl), 1 mM DTT, 0.1 mg/ml BSA, 20 nM Cy5-RNA, temperature not stated, low values mean tight binding
T1 sequence: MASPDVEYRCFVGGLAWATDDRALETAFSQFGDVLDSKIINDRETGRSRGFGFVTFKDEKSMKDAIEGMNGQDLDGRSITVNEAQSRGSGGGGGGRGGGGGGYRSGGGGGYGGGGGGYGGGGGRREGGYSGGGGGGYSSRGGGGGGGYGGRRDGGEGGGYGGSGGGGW

[1] = target: T2, AtGRP7 (Arabidopsis thaliana) (UniProt Q03250); conditions: 25 mM Tris-HCl pH 8.0, 150 mM NaCl (150 mM LiCl for Sc1 LiCl), 1 mM DTT, 0.1 mg/ml BSA, 20 nM Cy5-RNA, temperature not stated, low values mean tight binding
T2 sequence: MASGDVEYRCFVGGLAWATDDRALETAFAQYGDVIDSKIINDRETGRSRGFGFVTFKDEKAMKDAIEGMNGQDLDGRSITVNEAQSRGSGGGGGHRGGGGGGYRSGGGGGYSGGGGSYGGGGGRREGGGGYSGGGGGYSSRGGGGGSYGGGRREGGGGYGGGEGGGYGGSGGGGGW

[2] = target: T3, AtBnGRP7 (Arabidopsis thaliana / Brassica napus chimera) (UniProt Q03250); conditions: 25 mM Tris-HCl pH 8.0, 150 mM NaCl (150 mM LiCl for Sc1 LiCl), 1 mM DTT, 0.1 mg/ml BSA; 20 nM Cy5-RNA; about 2 min incubation; temperature not stated; low values mean tight binding
T3 sequence: T1 sequence with P4G, S29A, F31Y, L35I, S61A

[3] = test system: AtGRP7 (Arabidopsis thaliana); conditions: MST: 25 mM Tris-HCl pH 8.0, 150 mM NaCl, 1 mM DTT, 0.1 mg/ml BSA, 20 nM Cy5-RNA, protein titrated from 50-75 uM, about 2 min incubation, temperature not stated
[4] = about 50% of C as m5C, random, about 2 min …
[5] = about 50% of A as m6A, random, about 2 min …

Work on UGGAGAAGCAGGGCACGUGCA [m5C-miR164] yielded a Kd (BnGRP7 (Brassica napus); [4]) of 16.9 µM and a Kd [1, 4] of 0.143 µM.
Work on “AUGAAAGUAAACUGCUUGCUUGCACACUUAGACGUGUAA [BnaC05g32740D]” yielded a Kd (BnGRP7 (Brassica napus); about 2 min incubation) of 6.69 µM.
“GGAUGUCCCCGAGGACCAGGGUACAAUCCUUCAUCCACCGCACUGUAAAAAUCUUCUCCGUCUGUCUCACCUCCAUGCUAGAAGAUCUUGACAAGGUCUUCGAUCCUAAACGCCGACUCAUCUCUCCCCAGUCUCACGGAAGCCUCACCGCCUCUCCAAAGACGUCGGGAAUCGUCACCGUCGAGCAAGACCGCGUCUCGGCGAAAGCUCGAACUGGUUCAGAGAAGCAAGUAUAUCGGCUAGGAUUGAUUGAGGAGGAGAAGAGCAAAAGGAAAAAAGGAAAGGAGAAGGAGUUUCGCCUCCGGCACCACCGCAAGGGCAGGCCGGAGCUAGGGUUUCAGGCUGAAGGAGGCGGCUUCUGA [BnaA09g50830D]” was tested, and the Kd (BnGRP7 (Brassica napus); about 2 min incubation) was 2.75 µM.
“GGAUGGGAAAUCGUUGUGCUAGAACUCCUUGUUGUACAAAGUUGUGGUCAUGUAUAUGCUGCUGCUGCUGCAGCAACAACAAAGCUCGAGCAAGAAGCCAACACGGGUCUAAAGGGAAUGUCUAUUCGAUAAACAGAAUUGAGAAAUGGGAAGAAAAGAUAACAGAAGCUAACAACAAUGGCAAGAUUCUGGUGGUGUAUUUCAGCGCGCCGUGGUGUGUACCUUGUAAAAAGAUAGAACCAGUAUUCAGAGAACUUGCUUCUAGAUACCCUUCAAUGAUUUUUGUAACCAUUGAUGUGGAAGAACUCGCUGAGUUUAGUGAUGAAUGGAAUGUGGAAGCUACACCAACUAUAGUGUUUCUUAAAGAUGGGAGACAAAUGGAUAAGCUUGUUGGUGCUGAAACCUCAGAGCUUCAGAAGAAAACAGCUGCAGCUGCUGAACUCUUACUCAGAAAACCAUAA [THIOREDOXINH10]” was tested, and the Kd (BnGRP7 (Brassica napus); about 2 min incubation) was 3.36 µM, the Kd (BnGRP7 (Brassica napus); [5]) was 9.95 µM and the Kd (BnGRP7 (Brassica napus); [4]) was 12.3 µM. For the same substance, the Kd ([1]; about 2 min incubation) was 0.627 µM, the Kd [1, 5] was 0.247 µM and the Kd [1, 4] was 1.63 µM.
With “GGCAUCACACCUUCCCUCUCUUCACUGUAAACCUACUACAUCUCCCCCUCUCUCUCAUUUCAAUGGCGUCCCCUGAUGUUGAGUACCGGUGCUUCGUUGGAGGUCUAGCUUGGGCCACCGACGACAGAGCUCUCGAGACCGCCUUCUCCCAGUUCGGCGACGUUCUCGAUUCCAAGAUCAUUAACGAUCGUGAGACGGGACGAUCAAGGGGAUUCGGAUUCGUCACCUUCAAGGAUGAGAAGUCGAUGAAGGACGCCAUCGAGGGGAUGAACGGACAGGAUCUCGACGGUCGCAGCAUCACUGUUAACGAGGCUCAGUCUCGUGGAAGCGGUGGUGGCGGAGGAGGCCGCGGCGGAGGCGGUGGUGGAUACCGCAGCGGAGGCGGUGGUGGUUACGGAGGAGGCGGUGGUGGAUACGGUGGAGGUGGUGGAAGACGCGAGGGUGGUUACAGUGGUGGCGGUGGAGGUGGUUACUCGUCGAGAGGAGGUGGUGGCGGUGGAGGUUACGGUGGCAGGCGUGAUGGUGGUGAAGGUGGAGGUUACGGAGGAAGCGGUGGUGGUGGUUGGUAAUUAGAUUUUAGAGUUUGAGGUUGUUGUUGUGUCUGUUCCGUUUCUGGGUUCGGGUUUAUGUUUCUAUCUCUAUGUGUUAUGUUUGGUUCUUGCUGUUUUGGUUGUAACAGUUCGUGGUUAGGUAUCUGAUAUCUGGAAACGCAAUGUUAAAUCACUUUUUCAUUAUCUUGCCGUGUUUUAUUUUUUAAGUUUAACAAAU [BnGRP7]” the Kd (BnGRP7 (Brassica napus); about 2 min incubation) was 4.89 µM and the Kd ([1]; about 2 min incubation) was 0.123 µM.
“GGAUGGCGUCCCCUGAUGUUGAGUACCGGUGCUUCGUUGGAGGUCUAGCUUGGGCCACCGACGACAGAGCUCUCGAGACCGCCUUCUCCCAGUUCGGCGACGUUCUCGAUUCCAAGAUCAUUAACGAUCGUGAGACGGGACGAUCAAGGGGAUUCGGAUUCGUCACCUUCAAGGAUGAGAAGUCGAUGAAGGACGCCAUCGAGGGGAUGAACGGACAGGAUCUCGACGGUCGCAGCAUCACUGUUAACGAGGCUCAGUCUCGUGGAAGCGGUGGUGGCGGAGGAGGCCGCGGCGGAGGCGGUGGUGGAUACCGCAGCGGAGGCGGUGGUGGUUACGGAGGAGGCGGUGGUGGAUACGGUGGAGGUGGUGGAAGACGCGAGGGUGGUUACAGUGGUGGCGGUGGAGGUGGUUACUCGUCGAGAGGAGGUGGUGGCGGUGGAGGUUACGGUGGCAGGCGUGAUGGUGGUGAAGGUGGAGGUUACGGAGGAAGCGGUGGUGGUGGUUGGUAA [BnGRP7]” showed a Kd (BnGRP7 (Brassica napus); about 2 min incubation) of 7.38 µM, a Kd [2] of 0.414 µM and a Kd ([1]; about 2 min incubation) of 2.97 µM.
AtCOR15A CDS RNA was tested, and the Kd [3] was 0.062 µM.
GFP RNA was tested, and the Kd [3] was 9.17 µM.
Substance Notchless has a Kd (BnGRP7 (Brassica napus); about 2 min incubation) of 6.97 µM and a Kd ([1]; about 2 min incubation) of 3.67 µM.
Work on “GGAUGCAGUACUACGAAACCCGUGAGAAAGAAUACUACGAUGUGGCUCAAGGUCAGAGCCGCCAGAGCUAUGGCCAGAACCACCAGGGAUAUGGACAGAGCCAAAGUCGCCCAGUAUAUGGGAAUAGUCCGACUCUGAACUACCGUAGCCACGGUGGGUUUCUUGAUGGGUUAUUCAAGGGUAAAAAUGGUCAAAAGGGUCAAAAUGGCUUAGGGUCGUUUCUAGGGCAACACAAGAACCAAGAUACUAACCAGGGCCAUGGACAUGGGAAGCUCUUAGGACAGCACCAGAAGAAAACUCAUGAGACAAACAAAGGUGUUAAUGGCCUAGGAAUGUUCAUAAACAAUGGAGAGAAGAAACAUAAGAAGCAAAAUGAGCACAAGAAGAAGAAGAACAAGGAUGGGCAUGCCAGUGGCAAUGAGAGUGGAAGCAGCAGCGGUAGCGACAGCGAGUAA [BnPARCL]” yielded a Kd (BnGRP7 (Brassica napus); about 2 min incubation) of 4.07 µM, a Kd (BnGRP7 (Brassica napus); [5]) of 7.93 µM and a Kd (BnGRP7 (Brassica napus); [4]) of 15.7 µM. For the same substance, the Kd ([1]; about 2 min incubation) was 0.0997 µM, the Kd [1, 5] was 0.024 µM and the Kd [1, 4] was 0.208 µM.
With UGGAGAAGCAGGGCACGUGCA [m6A-miR164] the Kd (BnGRP7 (Brassica napus); [5]) was 15.8 µM and the Kd [1, 5] was 0.142 µM.
With defensin like protein 3 RNA the Kd [3] was 2.72 µM.
Substance “GGAUGACAACCGUAGCCGCAACAGGCAUCAACGUCGCGACUCCACGACUGGUCAUUCGACCAGCGGCUCGUCUAUACGCCCCGGUCCGUUUGAAUUACCCGUGGAAAUUCGGUUCGAUGAACCGGAUGGUUACGUCGGUGAAGGCGACAUCGGAAGGAGGGAUGAUAUCGGAUAAGGUGGAGAAGAGUAUUCAGGAAGCGAAGGAGACUUGCGCUGACGAUCCUGUGAGCGGAGAGUGUGUUGCGGCGUGGGACGAGGUGGAGGAGCUGAGCGCCGCGGCGAGUCACGCUAGGGACAAGAAGAAAGCUGGUGGAUCCGAUCCUUUGGAAGAAUACUGCAGUGAUAAUCCUGAGACUGAUGAGUGUCGUACUUAUGACAACUGA [CP12-1]” has a Kd (BnGRP7 (Brassica napus); about 2 min incubation) of 6.08 µM, a Kd (BnGRP7 (Brassica napus); [5]) of 13.9 µM and a Kd (BnGRP7 (Brassica napus); [4]) of 10.4 µM. For the same substance, the Kd ([1]; about 2 min incubation) was 0.686 µM, the Kd [1, 5] was 0.429 µM and the Kd [1, 4] was 0.256 µM.
Sc1 G-quadruplex RNA was tested, and the Kd ([3]; 150 mM LiCl instead of NaCl (G4 unfolded)) was 0.463 µM and the Kd [3] was 6.9 µM.
